Experimental data reported in the supplement of paper PMC10441789.
Some of the results follow. Antibody binding of pooled human sera (four to six donors per pool; dilution not stated) to peptides of the Trypanosoma cruzi antigen TSSA on microarrays. Quantile-normalised fluorescence in arbitrary units, mean of duplicate arrays; higher = more binding. No active / inactive call. The uninfected pools are read here as the healthy donors of the same country. The strongest signals lie near the top of the scale (about 60,000).

The sequences below were run on pooled sera of uninfected people, Brazil (assay: antibody binding signal (normalised fluorescence) (arbitrary fluorescence units); higher = stronger serum antibody binding to peptide).
Experimental: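 Microarray of overlapping 15-residue peptides of the four Trypanosoma cruzi TSSA reference variants and 8- to 13-residue peptides of TSSAII 24-62, probed with one serum pool per country.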

Sequence	antibody binding signal
ISTPPSGTEKKAAAG	149
PSGTENKP	504
PPSGTENKP	395
STSSTPPSGTENKPA	546
SPSGASSGEAEASSN	125
PSQPGASSG	865
AAAGEAPSPSGASSG	180
GSTSSTPPSGT	249
APSQPGASSGE	146
GTENKPATG	337
SGTENKPA	343
ASSGEAEA	125
QPGASSGEAEASSNK	124
ENKPATGEA	169
SSTPPSGTENKPA	1020
QPGASSGEAEASS	137
TGEAPSQPGASSG	257
TPPSGTENKPATG	878
KKTAAGGTPSPSGAS	357
ENKPATGEAPSQ	287

Sequence	antibody binding signal
SSTPPSGT	169
STSSTPPSGTEN	286
EAPSPSGASSGEAEA	98.4
NGGSTISTPPSGTEK	555
TGEAPSQP	134
ATGEAPSQ	105
DKKTAAGEAPSPSGA	123
PSQPGASSGE	169
PPSGTDKKTAAGEAP	369
PSGTENKPATGE	358
KPATGEAPSQP	310
TANGGSTSST	299
ANGGSTSSTPPGTDK	311
GTENKPATGEA	300
TANGGSTSSTPPGTD	163
STSSTPPSGT	183
GGTPSPSGASSGEAE	162
PSQPGASS	330
GEAPSQPGA	232
EAEASSNKNDGSLSS	126
